± gives the standard deviation. The list shows a part of the results, in another mix than the full data.
Test system: MIWI (PIWIL1) piRISC loaded with L1MC piRNA (30 nt)
Test: pre-steady-state target cleavage rate (min^-1); MIWI and MILI are mouse PIWI proteins and EfPiwi is from a freshwater sponge; tags in brackets are library labels; higher = faster piRNA-guided slicing of the target
Conditions: guide: L1MC piRNA 5'p-UAACUAAAUACUAUGCAAGCUGUAGGUCCU
Summary of the method: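 For Cleave-'n-Seq, a transcribed, DNA-blocked target RNA library […] met 1 nM active affinity-purified piRISC with one synthetic guide at 33 °C for 0–8 or 0–960 min in HEPES–potassium acetate buffer, with or without 500 nM GTSF1 partner protein. Uncleaved targets were sequenced and normalised to depth and weakly complementary targets, with three trials pooled and k3 capped at 0.0001 min^-1. A burst-and-steady-state fit supplied the pre-steady-state cleavage rate.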

[1] = auxiliary factor: 500 nM mouse GTSF1
[2] = auxiliary factor: none (no GTSF1)
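Also: 1 nM active piRISC with 0.1 nM target library at 33 °C single turnover.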

Sequence: UGGACCUACAGCUUGCAUAGUAAAAAGUUA
- pre-steady-state target cleavage rate [1]: 0.337 ± 0.044
- pre-steady-state target cleavage rate [2]: 0.00424 ± 0.0024

Sequence: UGGACCUACACCUUGCAUAGUAUAUAGUUA
- pre-steady-state target cleavage rate [1]: 0.523 ± 0.041
- pre-steady-state target cleavage rate [2]: 0.0327 ± 0.007

Sequence: UCCUGGAUGUCGAACGUAAGUAUUUUAGUUA
- pre-steady-state target cleavage rate [1]: < 0.0001
- pre-steady-state target cleavage rate [2]: < 0.0001

Sequence: UCCUGGAUGUGCGUGCAUAGUAUUUAGUUA
- pre-steady-state target cleavage rate [1]: 0.255 ± 0.027
- pre-steady-state target cleavage rate [2]: 0.025 ± 0.0072

Sequence: UCCUGGAUGUGGUUGCAUAGUAUUUAGUUA
- pre-steady-state target cleavage rate [1]: 0.0576 ± 0.0088
- pre-steady-state target cleavage rate [2]: 0.00657 ± 0.0025

Sequence: UCGACGUACAGCUUGCAUAGUAUAUAGUUA
- pre-steady-state target cleavage rate [1]: 0.801 ± 0.037
- pre-steady-state target cleavage rate [2]: 0.031 ± 0.0075

Sequence: UCCUGGAUGUCGAACGUAAGUAUUUAUUA
- pre-steady-state target cleavage rate [1]: < 0.0001
- pre-steady-state target cleavage rate [2]: < 0.0001

Sequence: UCGUGGUACAGCUUGCAUAGUAUUUAGUUA
- pre-steady-state target cleavage rate [1]: 1.23 ± 0.038
- pre-steady-state target cleavage rate [2]: 0.0818 ± 0.014

Sequence: UCGACCUACAGCUUGCAAACUAUUUAGUUA
- pre-steady-state target cleavage rate [1]: 0.327 ± 0.021
- pre-steady-state target cleavage rate [2]: 0.00749 ± 0.0023

Sequence: AGGACCUACUGCUUGCAUAGUAUUUUCAAA
- pre-steady-state target cleavage rate [1]: 0.198 ± 0.031
- pre-steady-state target cleavage rate [2]: 0.00608 ± 0.0028

Reference: the supplement of paper PMC10338343
